Data reported in PMC6831704.
These are yes or no findings as the source states them, for the method shown. Binding seen in cells or lysates may run through a third protein. Some results given as binding are weak or reduced against the parent protein; the word gives no strength.

What was measured:
[1] = target: IKKγ-FLAG (expressed in HeLa cells) (UniProt Q9Y6K9); test: co-IP + pull-down; HeLa cells expressing Tax-His and/or IKKγ-FLAG; anti-FLAG M2 immunoprecipitation, elution with 3X FLAG peptide, then His-specific purification on His-select HF agarose beads; western blot
[2] = target: endogenous p62 (experiment of Supplementary Fig. S3) (UniProt Q13501); test: co-IP; co-immunoprecipitation of Tax (wild type or ubiquitination-defective mutants) or HBZ with endogenous p62; Supplementary Fig. S3; cells not given
[3] = target: Myc-tagged full-length p62 (UniProt Q13501); test: co-IP; lysates of p62−/− MEF cells expressing Tax-His and Myc-tagged p62 constructs immunoprecipitated with a Myc-specific antibody; western blot
[4] = target: FLAG-IKKγ (expressed in MEF cells) (UniProt Q9Y6K9); test: co-IP; lysates of wild type and p62−/− MEF cells expressing Tax-His and FLAG-IKKγ immunoprecipitated with a FLAG-specific antibody; western blot
[5] = target: p62, endogenous in HTLV-1 chronically infected T cells (human (endogenous in C8166, HuT102 and C91PL)) (UniProt Q13501); test: co-IP; lysates of HTLV-1 chronically infected C8166, HuT102 and C91PL cells immunoprecipitated with a p62-specific or Tax-specific antibody or control Ig; 50 mM Tris pH 7.4, 150 mM NaCl, 1% NP40; overnight at 4 °C; western blot
[6] = target: Tax-His (expressed in HeLa cells) (HTLV-1) (UniProt P03409); test: co-IP + pull-down; HeLa cells expressing Tax-His and/or IKKγ-FLAG; anti-FLAG M2 immunoprecipitation, elution with 3X FLAG peptide, then His-specific purification on His-select HF agarose beads; western blot
[7] = target: MBP-p62(170-206) (UniProt Q13501); test: pull-down; MBP and MBP-tagged p62 proteins from E. coli immobilized on amylose resin; in vitro translated [35S]-labeled Tax; SDS-PAGE and autoradiography; only the target purified
[8] = target: GST-p62Δ256-370 (UniProt Q13501); test: pull-down; GST and GST-tagged p62 proteins from E. coli immobilized on glutathione-coupled Sepharose beads; in vitro translated [35S]-labeled Tax; SDS-PAGE and autoradiography; only the target purified
[9] = target: GST-p62Δ123-170 (UniProt Q13501); test: as above
[10] = target: GST-p62 (UniProt Q13501); test: as above
[11] = target: GST-p62Δ170-256 (UniProt Q13501); test: as above
[12] = target: GST-p62Δ371-385 (UniProt Q13501); test: as above

With “Tax-His (expressed in HeLa cells) (from UniProt P03409 1-353)” as the substance, how does the binding [1] read?
Its binding is “binds”.

“wild type Tax (His-tagged; experiment of Supplementary Fig. S3) (from UniProt P03409 1-353)” was tested. Which binding [2] did it give?
Its binding is “binds”.

For “Tax-His (expressed in MEF cells) (from UniProt P03409 1-353)”, which binding [3] is on record?
Its binding is “binds”.

What about the binding [4] of the same substance?
The binding was “binds”.

Which binding [5] does the source give for “Tax, endogenous in HTLV-1 chronically infected T cells (from UniProt P03409 1-353)” here?
The binding was “binds”.

“p62, endogenous in HeLa cells (from UniProt Q13501 1-440)” was tested. Which binding [6] did it give?
The binding was “binds”.

What about the binding [1] of the same substance?
The binding was “binds”.

How did the binding [7] turn out when “in vitro translated 35S-labeled Tax (from UniProt P03409 1-353)” was run?
Its binding is “binds”.

And the binding [8]?
The binding was “binds”.

What about the binding [9] of the same substance?
The binding was “binds”.

What about the binding [10] of the same substance?
The binding was “binds”.

What about the binding [11] of the same substance?
Its binding is “no binding”.

And the binding [12]?
The binding was “binds”.
